Source: the supplement of paper PMC11417369
The other results are listed elsewhere or left out.

system: PfAP2-HC AP2 domain (GST-tagged); experiment: gcPBM binding intensity (ln(normalized median fluorescence intensity)); higher = stronger DNA binding
Outline: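 The binding buffer was 1× PBS containing 1% milk, 0.2 mg/ml BSA, 0.5% salmon testes DNA and 0.03% Triton X-100. In it, GST-tagged P. falciparum DNA-binding domains expressed in E. coli were applied for 1 h to an Agilent 4 × 180k array of primer-extended double-stranded 36-bp intergenic genomic probes plus negative controls. Binding intensity, read with Alexa488 anti-GST antibody and a 488 nm scan, is the highest Masliner-normalised natural-log median intensity across replicate spots of either probe orientation.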

Row | Sequence | gcPBM binding intensity (ln)
1 | TAATAAATAGGACACACACACATATTTATATATCAT [CACACA_site6771] | 11
2 | CCTTTAAGCAAAAACACACACACATATTTATTTATA [CACACA_site6294] | 10.2
3 | AATTTTTTTTTTTTGTTGCACTTTTAGAGTTTTAAT [GTGCAC_site9519] | 9.63
4 | TTGCAAAATTGTTTTATCACAAATATATACTTAATA [CACACA_negctrl_site403] | 9.36
5 | TAATTCTTGTAAAATGTGCGCAGTAGATATAGTTTT | 9.72
6 | AGATATAAGAAAAGCACACACACACTAGAAAAAAAA [CACACA_site5559] | 11
7 | ATATTTATTCAATCCAGTACATATTATATATTGTAT [XGTACX_site184] | 9.68
8 | ATAAAATTATATACGTGTACATATATATATTTATGT [XGTACX_site4653] | 9.73
9 | TTTCTTTTTTCACGTGCATGCCATTTAAGTATTAAT [TGCATGCA_site651] | 9.94
10 | TTTGTTTGGTTTTGGTGTACTTTTTTTTTTTTTTCT [XGTACX_site2050] | 9.77
11 | AGAATTCAACAATGTTGTACATACACACACACAAAA [XGTACX_site5035] | 10.2
12 | GAATTATAAGAATAAACACACAAGCTTAAAAAAAAA [CACACA_site1204] | 9.73
13 | ACATATGTATAATATGCACACGTCATTTTCCCCTTA [CACACA_site5194] | 10
14 | ACTAAACTTATATGTACACACATATAACATTAATTT [CACACA_site2258] | 9.95
15 | TTATTATTTGGTTATAGTACATAATATAATATATAT [XGTACX_site6911] | 9.58
16 | CTATATTTCGTTGGACGTACAAATGTGATAATTAGG [XGTACX_site3232] | 9.43
17 | TATATATATATGTATGCATGTTGTTTTTTATTTAAT [TGCATGCA_site343] | 9.99
18 | CTAATTGTGTATACCTGTACATATATATATATATAT [XGTACX_site416] | 9.96
19 | AAAAAAAAAAAGAACACACACAGTGCACATTCGGTG [CACACA_site788] | 10.4
20 | TGTTATTCTACATATACACACAAATAACAATTTAAA [CACACA_site1824] | 9.61
21 | TTAACTTTTTTATATGCACACATAAACAAGGATATA [CACACA_site8932] | 9.6
22 | AATACAAAAAAAGGTACACACATAATATATTTATTA [CACACA_site2628] | 9.95
23 | TTTCCCTCAAATAAAGTGCATTATGATTTTAATTTA | 9.51

Row | Sequence | gcPBM binding intensity (ln)
24 | ATGTATTTATTTTAACGTACAAGATATTATTATTAT [XGTACX_site4609] | 9.58
25 | AAATTATATATGATGTGTACATAAATATATACACAT [XGTACX_site8761] | 9.72
26 | ATATGGCATATTTGTATTATACATACATATGTATCT [TGCATGCA_negctrl_site562] | 10.1
27 | AAATTATAATATAATACACACATAAAAAAAAAAAAA [CACACA_site7] | 9.79
28 | TTATTATTCAAGAGGAGTACATTATGTGTATAATAT [XGTACX_site4995] | 9.58
29 | TATATTTAGAGAGAGACACACAAAGGGACTTACACA [CACACA_site2545] | 9.94
30 | TGTGTATATCGATAAAGTACATTTGAAAAGTGACTT [XGTACX_site6957] | 9.6
31 | GTAATATGTATCCATACACACATACAGTTTATTTGC [CACACA_site6540] | 9.96
32 | TTTTATGCGCAATAAGTGCATTTAAAATATATATAT | 9.44
33 | TCCACTTAACTCAATTGTACAAAAATAAAAATTAAA [XGTACX_site855] | 9.41
34 | ATAATATATATATATATATTATCAAATATATATATA [GTGCAC_negctrl_site346] | 9.52
35 | ATACGAAGAAATGTTCATTTATTTCGAACATTTAAT [CACACA_negctrl_site1481] | 9.52
36 | TTTTTCATAAAACACACACACAAAAATAATGTGGAA [CACACA_site3687] | 10
37 | AATATAATATAATATAGTACGTAAAAATATTATACA [XGTACX_site2170] | 10
38 | GTATTAATATATAATTGTACTTTTTTTTTTTTTTTT [XGTACX_site4369] | 9.53
39 | AATAATGAATTGAAATGTACATATTTTTATTAATAC [XGTACX_site8899] | 9.67
40 | TTTTTATATTTTACATGTACATAAATATATTATATA [XGTACX_site958] | 9.72
41 | ATCACCAAATGGGCTATACAACAATGAGAAATGGTA [CACACA_negctrl_site48] | 9.47
42 | TTCACATGAAGAATTAAAATAAAACTAGGAAATTAA [CACACA_negctrl_site1047] | 9.47
43 | TTCATATAATTCATCTGTACATATTGATAGTATGCA [XGTACX_site6386] | 9.61
44 | TGTTTTATTTATTAAGCACACGCGATTTAAAAAATA [CACACA_site981] | 9.37
45 | TCAAATGTGTAATCTTGTACACATTAAAAGAAAAAA [XGTACX_site8822] | 9.65
46 | AATAATATATGGACATGTACATAATATATATTTTTT [XGTACX_site312] | 9.81

Row | Sequence | gcPBM binding intensity (ln)
47 | AAGAAAAAGAATAACCTTATTTCTATATACTAATTT [TGCATGCA_negctrl_site477] | 9.48
48 | ATCAAAATTGTCATTACACACCTTTATTTTTATAAT [CACACA_site5071] | 9.82
49 | TTTGTTCTTTTTGAAGTGCACTGAAATATAACAAAA | 9.3
50 | AAAAAAACACACACATATATATATATATATATATAT [GTGCAC_negctrl_site498] | 10.3
51 | TAATATATTAATATATGTACGTATTTTTATTAATAT [XGTACX_site5346] | 9.65
52 | TTAAATAATTCTTTTAGTACACACGAATAAGCAGAT [XGTACX_site623] | 9.69
53 | TATCTTATATATAAGTGTACGCAGATTCTTACGATA [XGTACX_site6058] | 9.43
54 | ATAATTAATGATGTATGTACGGAATTTATATATTTG [XGTACX_site5685] | 9.77
55 | ATAGTAATAGAATGATTGCACTTAAATTTTCCCTCT | 9.62
56 | GTATACATATTTATAATAATAAATGTCTTATATTTT [CACACA_negctrl_site688] | 9.67
57 | ATATATCAAATAGACAAACACACAAAGGAAGAGTGA [CACACA_site3922] | 10.2
58 | TATGTATTAATGAGAACATGCAAAATAATAAACAAT [TGCATGCA_site362] | 9.75
59 | CACAGACACGGACACACACACACACCCAGACACATA [CACACA_site4357] | 11.6
60 | CATATACACGAACACACACACACACGCACAAAAAAA [CACACA_site6376] | 10.6
61 | ATATATATATATATATGTACATATGTCAACTGTCTA [XGTACX_site8636] | 10.5
62 | CATACATACAAACACACACACATATATATACATACA [CACACA_site852] | 11.4
63 | ATTTATTTTAAATAAGTGCAAAATGGTTATAAATAA | 9.6
64 | AAAATTTCAATAAATACACACATATAAATATAGATT [CACACA_site6893] | 9.83
65 | ATAAATATTTTGTAAGCATGCTTTTAAAAAAAGAAA [TGCATGCA_site572] | 9.28
66 | ATGTACTATAGGCACACACACTCACATATATATATA [CACACA_site5745] | 10.4
67 | AAATAGTTGTTAAAGGTGCACAATATGGATATAAGA | 9.98
68 | TGAAAATATATAACGCGTACAAAAAGGAAATACAAT [XGTACX_site3534] | 9.89
69 | TTTTTTTTTTTTTTTGCATGTTGAAAATAAAATTAT [TGCATGCA_site86] | 9.03

Row | Sequence | gcPBM binding intensity (ln)
70 | GGAATAACCAGACACACACACACATATAAATATGTA [CACACA_site7632] | 11.2
71 | TAAATACAAGAACTGACACACATACATACTACATTT [CACACA_site5561] | 10.5
72 | GGAAAAAAATAAAATAAGTATTTTACATACATATTG [TGCATGCA_negctrl_site10] | 9.49
73 | ATATATTTTTATATAGTGCAAGTAATAAAAAGGAAT | 9.78
74 | ATAACATTCAAAAAATGTACAAACATATGAATAAAT [XGTACX_site7013] | 9.79
75 | ATATCATTTTATTTGTGTACTTAAAAAGTTGCAATG [XGTACX_site4099] | 9.56
76 | AAAACTTTTTTAACAGAAAAATAGGGATACAATATA [CACACA_negctrl_site1708] | 9.57
77 | TTTTTATATTTATATAAATAAAAAAATAACAAAATG [XGTACX_negctrl_site231] | 9.46
78 | TACCTATACAGACACACACACACACGCCCACAAAAA [CACACA_site6375] | 11.1
79 | TGAACATACATCAAAAGTACAAACTCGCATGTTATA [XGTACX_site3320] | 9.67
80 | CTCCATATTAGACACACACACAAATGAAAAAAATAT [CACACA_site7420] | 10.2
81 | TAAAATTAAACAAAAAAAAAGAAAAAAAAAAAAAAG [CACACA_negctrl_site1098] | 9.51
82 | TTTTGGTATACGTAATTATATAATATGTTAATCAAT [CACACA_negctrl_site645] | 9.61
83 | AATATTCTATATGATACATGCATGATGGAATAAAAA [TGCATGCA_site980] | 9.77
84 | AATGTAGACACATATGTACACACATATATATGTATA [CACACA_site9014] | 10.1
85 | AAAAAAAACAGACACACACACATAAATATAAATAAA [CACACA_site6214] | 10.5
86 | TTTTTAAAAAGTAACACACACTCTTATATATAATGA [CACACA_site3618] | 10
87 | TATACATATATATATATATATAGATATATTCACGTG [XGTACX_negctrl_site265] | 9.61
88 | AAAATAATAATAAATGCATGTGTTGTTTACTAAGAA [TGCATGCA_site528] | 9.92
89 | ATATATATATATATATGTACTTAATGTTATTATATA [XGTACX_site4508] | 9.59
90 | TGTTCAGTATTGCACACACACAACAAAATAAAAAAA [CACACA_site6314] | 10.2
